From the supplement of paper PMC6089552
Hit rate of the full screen: of about 3,200 compounds, about 300 (9.4%) showed activity. Only a part is listed here, and it is no random draw.

Test system: A673/TR/shEF
Assay: cell viability (LOESS-normalised, relative to median of negative controls) (log2 ratio); higher = more viable cells (less compound effect), active = hit call of the paper (over 3 MAD below the median)
Conditions: treatment time: 72 h
Outline: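 Doxycycline, present or absent from 24 h before compounds, was used to induce EWS-FLI1 shRNA knockdown in A673/TR/shEF Ewing sarcoma cells at 1,500 per well in 384-well plates. Cells then received library compounds at two or more concentrations, or DMSO controls, for three days. Viability was measured by CellTiter-Glo luminescence on an Envision reader, and per-plate LOESS correction, division by the negative-control median and log2 transformation followed.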

[1] = 0.25 µM, library screen: screen1, EWS-FLI1 expression: high (no doxycycline)
[2] = 0.25 µM, library screen: screen1, EWS-FLI1 expression: low (doxycycline-induced shRNA knockdown)
[3] = 2.5 µM, library screen: screen1, EWS-FLI1 expression: high (no doxycycline)
[4] = 2.5 µM, library screen: screen1, EWS-FLI1 expression: low (doxycycline-induced shRNA knockdown)
[5] = 0.025 µM, library screen: screen1, EWS-FLI1 expression: high (no doxycycline)
[6] = 0.025 µM, library screen: screen1, EWS-FLI1 expression: low (doxycycline-induced shRNA knockdown)
[7] = 0.25 µM, library screen: screen2, EWS-FLI1 expression: high (no doxycycline)
[8] = 0.25 µM, library screen: screen2, EWS-FLI1 expression: low (doxycycline-induced shRNA knockdown)
[9] = 2.5 µM, library screen: screen2, EWS-FLI1 expression: high (no doxycycline)
[10] = 2.5 µM, library screen: screen2, EWS-FLI1 expression: low (doxycycline-induced shRNA knockdown)
[11] = 25 µM, library screen: screen1, EWS-FLI1 expression: high (no doxycycline)
[12] = 25 µM, library screen: screen1, EWS-FLI1 expression: low (doxycycline-induced shRNA knockdown)
[13] = 2.8 µM, library screen: screen3, EWS-FLI1 expression: high (no doxycycline)
[14] = 8.3 µM, library screen: screen3, EWS-FLI1 expression: high (no doxycycline)
[15] = 8.3 µM, library screen: screen3, EWS-FLI1 expression: low (doxycycline-induced shRNA knockdown)
[16] = 25 µM, library screen: screen3, EWS-FLI1 expression: high (no doxycycline)
[17] = 25 µM, library screen: screen3, EWS-FLI1 expression: low (doxycycline-induced shRNA knockdown)
[18] = 0.103 µM, library screen: screen3, EWS-FLI1 expression: high (no doxycycline)
[19] = 0.103 µM, library screen: screen3, EWS-FLI1 expression: low (doxycycline-induced shRNA knockdown)
[20] = 0.308 µM, library screen: screen3, EWS-FLI1 expression: high (no doxycycline)
[21] = 0.308 µM, library screen: screen3, EWS-FLI1 expression: low (doxycycline-induced shRNA knockdown)
[22] = 0.926 µM, library screen: screen3, EWS-FLI1 expression: high (no doxycycline)
[23] = 0.926 µM, library screen: screen3, EWS-FLI1 expression: low (doxycycline-induced shRNA knockdown)
[24] = 2.8 µM, library screen: screen3, EWS-FLI1 expression: low (doxycycline-induced shRNA knockdown)

Measured: cell viability (log2)

CC(C)=CCC/C(C)=C\CO
0.269: [3]
inactive: [1] 0.138 | [2] 0.0517 | [4] 0.0556

O=S(=O)(c1cccc2c(Cl)cccc12)N1CCCNCC1
inactive: [5] 0.198 | [6] -0.106 | [1] 0.179 | [2] -0.113 | [7] 0.275 | [8] 0.144 | [4] -0.13 | [9] 0.128 | [10] 0.122 | [12] -0.103
active: [3] -0.211 | [11] -0.331

CCC(C)C(=O)OC1[C@@H]2CC3=C4CC(=O)O[C@@H](c5ccoc5)[C@]4(C)CCC3[C@@](C)(C2=O)[C@@H](CC(=O)OC)C1(C)C (stereo not given in full)
inactive: [1] 0.0496 | [2] 0.0641 | [3] 0.0299 | [4] 0.146

CC1=C(C(=O)O)N2C(=O)[C@@H](NC(=O)[C@H](N)c3ccccc3)[C@H]2SC1
inactive: [1] 0.0148 | [2] 0.036 | [7] 0.246 | [8] 0.109 | [3] 0.057 | [4] 0.0309 | [9] 0.1 | [10] 0.0911

Cc1cccc(C)c1NC(=O)C[N+](C)(C)C
inactive: [7] 0.174 | [8] 0.0998 | [9] 0.0786 | [10] 0.0656

CCCn1c(=O)c2[nH]c(-c3ccc(OCC(=O)NCCN)cc3)nc2n(CCC)c1=O
inactive: [7] 0.15 | [8] 0.0941 | [9] 0.152 | [10] 0.0512

Nc1ccccc1NC(=O)c1ccc(CNc2nccc(-c3cccnc3)n2)cc1
active: [13] -0.554 | [14] -1.39 | [15] -0.431 | [16] -3.23 | [17] -1.08

Cc1ccc(S(=O)(=O)/C=C/C#N)cc1
active: [3] -0.841 | [9] -0.102 | [11] -3.58 | [12] -2.12
inactive: [5] 0.231 | [6] -0.0315 | [1] 0.131 | [2] 0.0518 | [7] 0.14 | [8] -0.0223 | [4] -0.123 | [10] 0.0315

Cc1cc(O)cc(O)c1C(=O)O
inactive: [1] 0.0836 | [2] 0.00276 | [3] 0.16 | [4] 0.0121

CC1=C(C(=O)OC2CCCC2)C(c2coc3ccc(Cl)cc3c2=O)C2=C(CCCC2=O)N1 (stereo not given)
inactive: [1] 0.123 | [2] 0.0763 | [3] 0.136 | [4] -0.0126

C=CCN1C(=O)/C(=C2\SC(=S)N(c3c(C)n(C)n(-c4ccccc4)c3=O)C2=O)c2ccccc21
inactive: [1] -0.0187 | [2] -0.00404 | [3] 0.0713 | [4] -0.0309

COc1ccc2cc3[n+](cc2c1OC)CCc1cc2c(cc1-3)OCO2
active: [9] -0.318 | 25 µM, library screen: screen2, EWS-FLI1 expression: high (no doxycycline) -1.53 | 25 µM, library screen: screen2, EWS-FLI1 expression: low (doxycycline-induced shRNA knockdown) -0.365
inactive: 0.025 µM, library screen: screen2, EWS-FLI1 expression: high (no doxycycline) 0.0792 | 0.025 µM, library screen: screen2, EWS-FLI1 expression: low (doxycycline-induced shRNA knockdown) 0.0888 | [1] 0.0876 | [2] 0.0916 | [7] 0.139 | [8] 0.0365 | [3] -0.0264 | [4] 0.141 | [10] -0.00212

COc1cc2c(cc1Cc1cccc(Cl)c1F)c(=O)c(C(=O)O)cn2[C@H](CO)C(C)C
inactive: [18] 0.05 | [19] -0.00255 | [20] 0.102 | [21] 0.0944 | [22] 0.115 | [23] 0.0617 | [13] 0.0282 | [24] 0.1 | [14] 0.113 | [15] 0.0151 | [16] 0.139 | [17] 0.0149

CC[C@@H]1Cc2cc(O)ccc2C2=C1c1ccc(O)cc1C[C@H]2CC
inactive: [7] 0.16 | [8] 0.136 | [9] 0.141 | [10] 0.0955

COC(=O)C[C@H]1C(C)(C)C(=O)[C@@H]2CC3C4=CC(=O)O[C@@H](c5ccoc5)[C@]4(C)CC[C@@H]3[C@@]1(C)C2=O (stereo not given in full)
inactive: [1] 0.00456 | [2] 0.0839 | [3] 0.0543 | [4] 0.0477

CC(C)=CC1C(C(=O)O)C1(C)C (stereo not given)
inactive: [1] 0.103 | [2] 0.017 | [3] 0.143 | [4] 0.0923

OCC(S)CS (stereo not given)
inactive: [1] 0.132 | [2] 0.234 | [3] 0.179 | [4] 0.329

Oc1ccc2c(c1)O[C@H](c1ccc(O)c(O)c1)[C@@H](O)C2
inactive: [1] 0.0741 | [2] -0.0244 | [3] 0.0985 | [4] 0.085

O=C1C(O)=C(O)C(=O)C(O)=C1O
inactive: [1] 0.0591 | [2] 0.14 | [3] 0.183 | [4] 0.124

CC(=O)NC[C@H]1CN(c2ccc(N3CCOCC3)c(F)c2)C(=O)O1
inactive: [18] -0.04 | [19] 0.0645 | [20] 0.0945 | [21] 0.0943 | [22] 0.103 | [23] 0.0601 | [13] 0.0216 | [24] 0.0958 | [14] -0.0023 | [15] 0.0557 | [16] 0.0639 | [17] 0.105

CCSC(N)=Nc1ccc(C(F)(F)F)cc1
inactive: [7] 0.167 | [8] 0.0677 | [9] 0.236 | [10] 0.0895

COC(=O)C[C@H]1C(C)(C)C(=O)[C@@H]2C[C@@]3(O)C4=CC(=O)O[C@@H](c5ccoc5)[C@]4(C)CCC3[C@@]1(C)C2=O (stereo not given in full)
inactive: [1] 0.0813 | [2] 0.00839 | [3] 0.172 | [4] 0.118

COc1ccc2c(c1)c(CC(=O)OCC(=O)O)c(C)n2C(=O)c1ccc(Cl)cc1
inactive: [1] 0.202 | [2] -0.0162 | [3] 0.26 | [4] 0.193

Cc1cccc(C2CN(C)CCc3c2cc(O)c(O)c3Cl)c1 (stereo not given)
inactive: [7] 0.19 | [8] 0.0719 | [9] 0.0548 | [10] 0.000981

Cc1c(C)c2c(c(C)c1O)CCC(C)(CCCC(C)CCCC(C)CCCC(C)C)O2 (stereo not given)
inactive: [1] 0.0599 | [2] 0.175 | [3] 0.133 | [4] 0.306

CC(=O)O[C@]1(C(C)=O)CC[C@H]2[C@@H]3C=C(C)C4=CC(=O)CC[C@]4(C)[C@H]3CC[C@@]21C
inactive: [18] 0.048 | [19] 0.0501 | [20] 0.0173 | [21] 0.0399 | [22] 0.115 | [23] 0.0982 | [13] 0.11 | [24] 0.092 | [14] 0.0652 | [15] 0.121 | [16] 0.113 | [17] 0.0251

C=CC(C)(O)CCC=C(C)C (stereo not given)
inactive: [1] 0.109 | [2] 0.0913 | [3] 0.135 | [4] 0.115

Nc1nnc(-c2cccc(Cl)c2Cl)c(N)n1
inactive: [7] 0.146 | [8] 0.137 | [9] 0.218 | [10] 0.113

Cc1cc(Nc2cc(CN3CCOCC3)c3nc(C)c(Cc4ccc(Cl)cc4F)n3n2)n[nH]1
active: [13] -0.183 | [14] -0.442 | [15] -0.142 | [16] -1.04 | [17] -0.863
inactive: [18] 0.0112 | [19] 0.0393 | [20] -0.00623 | [21] -0.00356 | [22] -0.0578 | [23] 0.0432 | [24] -0.0123

CC[C@@]1(O)C(=O)OCc2c1cc1n(c2=O)Cc2cc3c(CN(C)C)c(O)ccc3nc2-1
active: [18] -0.373 | [20] -1.79 | [21] -0.321 | [22] -2.4 | [23] -0.459 | [13] -3.72 | [24] -0.844 | [14] -4.21 | [15] -1.11 | [16] -4.26 | [17] -1.44

CC1CCCC(C)N1NC(=O)c1ccc(Cl)c(S(N)(=O)=O)c1 (stereo not given)
inactive: [1] 0.125 | [2] 0.128 | [3] 0.102 | [4] 0.0215

Clc1cc(Cl)c(OCC#CI)cc1Cl
inactive: [1] 0.0905 | [2] -0.0049 | [3] 0.0878 | [4] 0.142

Oc1cc(O)cc(/C=C/c2ccc(O)c(O)c2)c1
active: [11] -0.42
inactive: [5] 0.0929 | [6] 0.00184 | [1] 0.117 | [2] 0.0696 | [7] -0.0238 | [8] 0.0864 | [3] 0.0516 | [4] 0.151 | [9] 0.187 | [10] 0.0106 | [12] 0.162

O=c1oc2ccccc2cc1O
inactive: [1] 0.0755 | [2] 0.0093 | [3] 0.138 | [4] 0.0389

C=CCNc1nc2ccccn2c(=O)c1/C=C1\SC(=S)N(CCc2ccccc2)C1=O
inactive: [1] 0.071 | [2] 0.0307 | [3] 0.121 | [4] 0.134

C=C1CCC(=O)C(C)CCC2C1CC2(C)C (stereo not given)
inactive: [1] 0.0584 | [2] -0.00925 | [3] 0.119 | [4] -0.105

CC1CCC2(OC1)OC1CC3C4CCC5C[C@@H](O)CCC5(C)C4=CCC3(C)C1[C@@H]2C (stereo not given in full)
inactive: [1] 0.0912 | [2] 0.0387 | [3] 0.0505 | [4] 0.0779

CC(C)CCCCCOC(=O)COc1ccc(Cl)cc1Cl
inactive: [1] 0.0385 | [2] 0.102 | [3] 0.111 | [4] -0.0211

COc1ccc(C[C@@H](N)C(=O)N[C@H]2[C@@H](O)[C@H](n3cnc4c(N(C)C)ncnc43)O[C@@H]2CO)cc1
active: [3] -1.82 | [4] -2
